Measurements reported in ChEMBL document CHEMBL1201862, “PubChem BioAssay data set” (2004).

system: NCI-H322M; test: growth of human tumour cells (NCI), 48 h

Compound | GI50
COc1ccc(/C=C2\N=C(SC)NC2=O)cc1 | inactive: > 100 µM
Nc1nc(SCc2ccccc2Cl)c2ncn(C3OC(CO)C(O)C3O)c2n1 (centres undefined) | inactive: > 100 µM
Nc1nc(-c2ccccc2)c(CC(=O)O)s1 | inactive: > 100 µM
CC(N/N=N/c1ccc(-c2nc3ccccc3[nH]2)cc1)C(=O)O (centres undefined) | inactive: 60 µM
Oc1c(N2CCCCC2)cc(-c2cc(N3CCCCC3)c(O)c3ccccc23)c2ccccc12 | inactive: 19.2 µM
COC(=O)C1(Cc2ccccc2)Cc2ccccc2C1=O (centres undefined) | inactive: 65.8 µM
CCCCCCCCCCCCCC(=S)N/C=C/OC | inactive: 34.3 µM
C=C1C(=O)O[C@H]2C1C[C@@H](O)/C(C)=C/CC[C@@]1(C)O[C@H]21 (some centres undefined) | inactive: > 56.8 µM
O=C(Cn1cc(I)c(C(=O)NCC(O)CO)n1)NCC(O)CO (centres undefined) | inactive: > 100 µM
CC(CO)(CO)N1C(=O)C2C3c4ccccc4C(c4ccccc43)C2C1=O (centres undefined) | inactive: > 100 µM
CCOC(=O)C(C(=O)COC(C)(C)C)[C@@H]1C=C[C@H](OC(C)=O)C1 (some centres undefined) | inactive: > 100 µM
CCCC[S+]([O-])CC(CO)NC(=O)/C=C/c1c(C)[nH]c(=O)[nH]c1=O (centres undefined) | inactive: 4.12 µM
CCCC(=O)NC(Nc1ccc(S(=O)(=O)Nc2ccc(OC)nn2)cc1)(C(F)(F)F)C(F)(F)F | inactive: > 100 µM
O=C1OC(c2ccc(Cl)c3ccccc23)c2ccccc21 (centres undefined) | inactive: > 100 µM
COC(=O)c1cn(CCCCO)nn1 | inactive: > 100 µM
CCOc1ccc(NC(=O)CCC(=O)NN)cc1 | inactive: > 100 µM
CN(C)c1ccc(/C=c2\sc3nnc(-c4ccco4)n3c2=O)cc1 | inactive: > 100 µM
N=C(N)NCCCS(=O)(=O)Nc1ccc(Nc2c3ccccc3nc3cc([N+](=O)[O-])ccc23)cc1 | inactive: 10.5 µM
CC(C)=CCNc1ncnc2c1ncn2CCC(=O)OC(C)(C)C | inactive: > 100 µM
Cc1cc(CS(=O)(=O)/C=C/c2ccccc2[N+](=O)[O-])c(CS(=O)(=O)/C=C/c2ccccc2[N+](=O)[O-])cc1C | inactive: > 87.7 µM
Cc1ccc(/C=N/NS(=O)(=O)c2ccc(/C=C3\NC(=O)NC3=O)cc2)cc1 | inactive: > 100 µM
Cc1cc2nc3[nH]nc(N)c3nc2cc1C | inactive: > 100 µM

Compound | GI50
Cc1cn(CCCCCCOC(=O)NC(CCCNC(=N)N)C(=O)O)c(=O)[nH]c1=O (centres undefined) | inactive: > 100 µM
COc1ccc(-c2c3c(nc4[nH]c(=S)[nH]c(=S)c24)CCCC3)cc1OC | inactive: 45.7 µM
B.CC(=O)OC1CN2CCC1CC2 (centres undefined) | inactive: > 100 µM
COc1cc(C2c3cc4c(cc3OC(NNc3ccccc3)C2C)OCO4)cc(OC)c1OC (centres undefined) | inactive: 1.38 µM
COc1ccccc1-n1cnc2c1=NC(C)(C)NC=2C(N)=O | inactive: > 100 µM
ClCCN1CCC2(CC1)SSC1(CCN(CCCl)CC1)S2 | inactive: 84.9 µM
N#CC1C(=S)NC(c2ccccc2)=CC12CCCCC2 (centres undefined) | inactive: 21.9 µM
Cc1ccccc1[P+](C)(c1ccccc1C)c1ccccc1C | inactive: 18.4 µM
COc1ccc(N2CCN(Cc3c(C(C)=O)[n+]([O-])c4ccccc4[n+]3[O-])CC2)cc1 | inactive: 21.9 µM
COc1cc(NCc2ccc3n2-c2ccccc2OC3)cc(OC)c1OC | inactive: 66.1 µM
O=C1CC(=O)c2c(O)cc(O)c(c2O)-c2c(ccc(O)c2O)C2=CC(=O)c3c(O)cc(O)c(c3O2)-c2c1ccc(O)c2O.O=C1CC2(O)Oc3c1c(O)cc(O)c3-c1c(ccc(O)c1O)-c1cc(=O)c3c(O)cc(O)c(c3o1)-c1c2ccc(O)c1O | inactive: > 50 µM
COc1cc(C)cc(C(=O)/C=C/c2ccccc2)c1O | inactive: 23.8 µM
CN(/N=N/c1[nH]cnc1C(N)=O)C1CCCCC1 | inactive: > 100 µM
NNC(=O)c1ccccc1Nc1ccccc1C(=O)NN | inactive: > 100 µM
N#CC1=C(O)NC(O)=C(C#N)C1c1c(Cl)cccc1Cl | inactive: 28.4 µM
Nn1c(Sc2nc3ccccc3c(=O)n2N)nc2ccccc2c1=O | inactive: 21.3 µM
COc1cc(-c2cc(=O)c3cc4c(cc3[nH]2)OCO4)cc(OC)c1O | inactive: > 10 µM
Cc1ccc2nc(NC(=O)C(=O)C(C#N)c3nc4ccccc4s3)sc2c1 (centres undefined) | inactive: 37.8 µM
CC/C(=N\NS(=O)(=O)c1ccccc1)c1ccccc1 | inactive: > 100 µM
C=CCCCCCCCCC(=O)NS(=O)(=O)c1ccccc1 | inactive: > 100 µM
CCCc1n[nH]c(CCC(=O)N(Cc2ccccc2)Cc2ccccc2)c1CC | inactive: > 100 µM
CCCCn1c2c(n(CCCC)c1=[Se])-c1c(n(CCCC)c(=[Se])n1CCCC)S[Se][Se]S2 | inactive: 15.5 µM

Compound | GI50
CCCCOC(=O)NC(=O)c1cn(CCCOC(=O)CCCCCCCCC(=O)OCCCn2cc(C(=O)NC(=O)OCCCC)c(=O)[nH]c2=O)c(=O)[nH]c1=O | inactive: > 100 µM
S=C(N/N=C(\C(=N/NC(=S)N1CCCCC1)c1ccccn1)c1ccccn1)N1CCCCC1 | inactive: 35.7 µM
CC(C)(O)C1OCC(C2CCC3(C)C4=CCC5C(C)(C)C(O)CCC5(C)C4CCC23C)CC1O (centres undefined) | inactive: 14.6 µM
COc1ccc(/C(Cl)=C(\C=O)c2ccc(Cl)c(Cl)c2)cc1OC | inactive: 5.31 µM
COc1cc(C2C3=C(COC3=O)OC(C)(C)Oc3cc4c(cc32)OCO4)cc(OC)c1O (centres undefined) | inactive: 2.49 µM
O=C(OC(/C=C/c1ccccc1)P1(=O)N(Cc2ccccc2)[C@@H]2CCCC[C@H]2N1Cc1ccccc1)c1ccccc1 (some centres undefined) | inactive: 6.03 µM
CC1=CC(=O)N(n2c(-c3ccccc3)n[nH]c2=O)C1=O | inactive: > 100 µM
Cc1cccc(NS(=O)(=O)c2ccc(/N=N/c3c(O)c(C(=O)O)cc4ccccc34)cc2)n1 | inactive: > 100 µM
Cc1ccc(S(=O)(=O)OC2C(O)C(O)OC2C(c2cc(O)c3c(c2O)C(=O)c2ccccc2C3=O)c2cc(O)c3c(c2O)C(=O)c2ccccc2C3=O)cc1 (centres undefined) | inactive: > 10 µM
Nc1ccccc1N/C=C\C(=O)C(Cl)(Cl)Cl | inactive: 33.7 µM
COc1ccc(NC(=O)CC(=O)n2nc(C)c(/N=N/c3cccc(C)c3)c2C)cc1 | inactive: > 100 µM
O=P1(Oc2ccc(Cl)cc2Cl)Oc2ccc3ccccc3c2-c2c(ccc3ccccc23)O1 | inactive: 23.7 µM
COC(=O)[C@]12CC[C@H]3CN(C(=O)OCc4ccccc4)[C@H]([C@H]31)[C@H](c1ccco1)N2S(=O)(=O)c1ccc(C)cc1 | inactive: 30.9 µM
N#CC1CC2(CCN1C(=O)c1ccccc1)OCCO2 (centres undefined) | inactive: > 100 µM
COc1nc(=O)n(C2CC(F)C(CO)O2)cc1C (centres undefined) | inactive: > 100 µM
CCN1CC2(C)CC[C@@H](OC)C34[C@@H]2[C@H](OC(C)=O)C2(OCO[C@@]25C[C@H](OC)C2C[C@]3(O)[C@@H]5[C@H]2O)[C@H]14 | inactive: > 100 µM
CC(C)=CCC[C@]1(C)C=Cc2c(O)c3c(c(CC=C(C)C)c2O1)O[C@]12C(=C[C@@H]4CC1C(C)(C)O[C@@]2(C/C=C(/C)C(=O)O)C4=O)C3=O | inactive: 2.16 µM
Nc1cccc(-c2cc(O)c3cc4c(cc3n2)OCO4)c1 | inactive: > 25.3 µM
COc1cc2oc(-c3ccc(O)cc3)cc(=O)c2c(OC)c1OC | inactive: > 100 µM
CCOC(=O)Nc1cc2c(c(N)n1)N=C(c1ccc(Cl)cc1Cl)CN2 | active: 0.0716 µM

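Briefly, cells in 96-well plates were exposed to five compound concentrations for 48 h, and endpoints were estimated by linear interpolation. Abbreviation: GI50, concentration required for 50% inhibition of growth.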 The source made the active and inactive calls. Rule as the data show it: active = GI50 up to about 1.1 µM and inactive = higher.
